Some of the results follow. Most values come without repeats; read them as rough.
The compounds below were run on IPC-298 (assay: cell count relative to DMSO control; melanoma cells; higher = more viable cells). Conditions: library dose: standard library concentration; 72 h.
`O=S(=O)(c1ccccc1)N(CC(F)(F)F)c1ccc(C(O)(C(F)(F)F)C(F)(F)F)cc1` + CCCCCCCCCCCC1=C(O)C(=O)C=C(O)C1=O [Embelin] (first compound 7 µM, partner dose 6 µM) was tested, and the cell count was 71.7%.
Work on `N#Cc1c(O)c2c(-c3ccc(-c4ccccc4O)cc3)csc2[nH]c1=O` + COc1ccc(-c2ccc3c(N4CCOCC4)nc(N4C[C@@H](C)O[C@@H](C)C4)nc3n2)cc1CO [KU0063794] (first compound 10 µM, partner dose 0.1 µM) yielded a cell count of 80%.
`COc1ccc2c(c1)CCC1C2CCC2(C)C(NCCCCCCN3C(=O)C=CC3=O)CCC12` (stereo not drawn) + CC(C)CCN1c2nc(Nc3cc(F)c(O)c(F)c3)ncc2N(C)C(=O)C1C [BID1870] (first compound 2 µM, partner dose 1 µM) gave a cell count of 85.2%.
In the case of `Oc1cc(-c2nc(-c3ccccc3)[nH]c2-c2ccncc2)ccc1Cl` + O=C1NC(=O)/C(=C/c2ccc(-c3ccc(F)cc3O)o2)S1 [AS252424] (first compound 1 µM, partner dose 5 µM), the cell count is reported as 66.9%.
For `COc1ccc2c(c1)CCC1C2CCC2(C)C(NCCCCCCN3C(=O)C=CC3=O)CCC12` (stereo not drawn) + c1cc(-c2cnn3cc(-c4ccc(OCCN5CCCCC5)cc4)cnc23)ccn1 [Dorsomorphin] (first compound 2 µM, partner dose 2 µM), the cell count was 82%.
`Cn1cc(/C=C2\C(=O)Nc3cccnc32)c2ccccc21` + O=c1cc(-c2cccc3c2Sc2ccccc2S3)oc(N2CCOCC2)c1 [KU55933] (first compound 2 µM, partner dose 5 µM) was tested, and the cell count was 77.3%.
In the case of `O=S(=O)(c1ccccc1)N(CC(F)(F)F)c1ccc(C(O)(C(F)(F)F)C(F)(F)F)cc1` + O=c1cc(-c2cccc3c2Sc2ccccc2S3)oc(N2CCOCC2)c1 [KU55933] (first compound 7 µM, partner dose 5 µM), the cell count is reported as 79.5%.
`COc1ccc(COc2ccc(Cc3cnc(N)nc3N)cc2OC)cc1` + Oc1cc(-c2nc(-c3ccccc3)[nH]c2-c2ccncc2)ccc1Cl [L779450] (first compound 5 µM, partner dose 1 µM) showed a cell count of 82.9%.
Work on `N#Cc1c(O)c2c(-c3ccc(-c4ccccc4O)cc3)csc2[nH]c1=O` + c1cc(-c2cnn3cc(-c4ccc(OCCN5CCCCC5)cc4)cnc23)ccn1 [Dorsomorphin] (first compound 10 µM, partner dose 2 µM) yielded a cell count of 109%.
`Oc1nc(-c2ccc(C(F)(F)F)cc2)nc2c1CSCC2` + COc1cc(N2CCC(N3CCN(C)CC3)CC2)ccc1Nc1ncc(Cl)c(Nc2ccccc2S(=O)(=O)C(C)C)n1 [NVP-TAE684] (first compound 10 µM, partner dose 0.4 µM) showed a cell count of 95.4%.
Work on `COc1ccc(-c2ccc3c(N4CCOCC4)nc(N4C[C@@H](C)O[C@@H](C)C4)nc3n2)cc1CO` + O=S(=O)(c1ccccc1)N(CC(F)(F)F)c1ccc(C(O)(C(F)(F)F)C(F)(F)F)cc1 [T0901317] (first compound 0.1 µM, partner dose 7 µM) yielded a cell count of 53.3%.
`COc1ccc(COc2ccc(Cc3cnc(N)nc3N)cc2OC)cc1` + CC(C)CCN1c2nc(Nc3cc(F)c(O)c(F)c3)ncc2N(C)C(=O)C1C [BID1870] (first compound 5 µM, partner dose 1 µM) was tested, and the cell count was 82.7%.
For `c1cc(-c2cnn3cc(-c4ccc(OCCN5CCCCC5)cc4)cnc23)ccn1` [Dorsomorphin] + CC(C)CCN1c2nc(Nc3cc(F)c(O)c(F)c3)ncc2N(C)C(=O)C1C [BID1870] (first compound 2 µM, partner dose 1 µM), the cell count was 78.6%.
`N#Cc1c(O)c2c(-c3ccc(-c4ccccc4O)cc3)csc2[nH]c1=O` + O=c1cc(-c2cccc3c2Sc2ccccc2S3)oc(N2CCOCC2)c1 [KU55933] (first compound 10 µM, partner dose 5 µM) was tested, and the cell count was 94.1%.
In the case of `N#Cc1c(O)c2c(-c3ccc(-c4ccccc4O)cc3)csc2[nH]c1=O` + CCN(CC)CCCCNc1ncc2cc(-c3cc(OC)cc(OC)c3)c(NC(=O)NC(C)(C)C)nc2n1 [PD173074] (first compound 10 µM, partner dose 0.5 µM), the cell count is reported as 93.3%.
For `Oc1cc(-c2nc(-c3ccccc3)[nH]c2-c2ccncc2)ccc1Cl` + Oc1nc(-c2ccc(C(F)(F)F)cc2)nc2c1CSCC2 [XAV939] (first compound 1 µM, partner dose 10 µM), the cell count was 99.4%.
`O=S(=O)(c1ccccc1)N(CC(F)(F)F)c1ccc(C(O)(C(F)(F)F)C(F)(F)F)cc1` + Oc1cc(-c2nc(-c3ccccc3)[nH]c2-c2ccncc2)ccc1Cl [L779450] (first compound 7 µM, partner dose 1 µM) was tested, and the cell count was 74.3%.
For `N#Cc1c(O)c2c(-c3ccc(-c4ccccc4O)cc3)csc2[nH]c1=O` + Oc1cc(-c2nc(-c3ccccc3)[nH]c2-c2ccncc2)ccc1Cl [L779450] (first compound 10 µM, partner dose 1 µM), the cell count was 114%.
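Note: cells treated in 1,536-well plates, then fixed and DAPI-stained, with nuclei counted from automated high-throughput microscope images.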
